Data: the antibiotic and cytotoxicity screens of Wong et al. (2023)
The other results are listed elsewhere or left out.

Columns and labels:
HSkMC = human skeletal muscle cells; assay: cytotoxicity call (relative viability < 0.9); conditions: 10 µM
HepG2 = assay: cytotoxicity call (relative viability < 0.9); conditions: 10 µM
S. aureus RN4220 = assay: growth inhibition call (relative growth <= 0.2); conditions: 50 µM

Structure (SMILES): C[C@@H]1CN([C@H](C)CO)C(=O)Cc2cc(NS(=O)(=O)c3ccc(Cl)cc3)ccc2O[C@@H]1CN(C)S(=O)(=O)c1cn(C)cn1
- cytotoxicity call (HSkMC): inactive
- cytotoxicity call (HepG2): inactive
- growth inhibition call (S. aureus RN4220): inactive

Structure (SMILES): C=CCOC(=O)[C@@H]1[C@H]2C(=O)O[C@H](c3ccccc3)[C@H](c3ccccc3)N2[C@H](c2ccc(OCCOC(=O)[C@H]3C[C@H]4C(=O)N5CCC[C@H]5C(=O)N4[C@H]3c3ccc(O)cc3)cc2)[C@@]12C(=O)Nc1ccccc12
- cytotoxicity call (HSkMC): inactive
- cytotoxicity call (HepG2): inactive
- growth inhibition call (S. aureus RN4220): inactive

Structure (SMILES): Cc1ccc(S(=O)(=O)Nc2ccc3c(c2)C(=O)N([C@@H](C)CO)C[C@@H](C)[C@@H](CN(C)C(=O)Nc2cccc4ccccc24)O3)cc1
- cytotoxicity call (HSkMC): inactive
- cytotoxicity call (HepG2): inactive
- growth inhibition call (S. aureus RN4220): inactive

Structure (SMILES): O=C(C[C@H]1CC[C@@H]2[C@H](COC[C@H](O)CN2C(=O)c2ccccc2)O1)NCCCN1CCOCC1
- cytotoxicity call (HSkMC): inactive
- cytotoxicity call (HepG2): inactive
- growth inhibition call (S. aureus RN4220): inactive

Structure (SMILES): O=C(CN1CCOCC1)N[C@H]1CC[C@@H](CCNS(=O)(=O)c2ccccc2F)O[C@H]1CO
- cytotoxicity call (HSkMC): inactive
- cytotoxicity call (HepG2): inactive
- growth inhibition call (S. aureus RN4220): inactive

Structure (SMILES): C[C@@H]1CN([C@H](C)CO)C(=O)c2cc(NC(=O)Nc3cccc4ccccc34)ccc2O[C@H]1CN(C)Cc1ccccc1
- cytotoxicity call (HSkMC): inactive
- cytotoxicity call (HepG2): inactive
- growth inhibition call (S. aureus RN4220): inactive

Structure (SMILES): COc1cc(CO)cc(I)c1O[C@H]1C=C(C(=O)NCCO)C[C@@H](NCc2ccccc2F)[C@@H]1O
- cytotoxicity call (HSkMC): inactive
- cytotoxicity call (HepG2): inactive
- growth inhibition call (S. aureus RN4220): inactive

Structure (SMILES): CC(C)(CO)[C@@H](O)C(=O)NCCC(=O)NCCSSCCNC(=O)CCNC(=O)[C@H](O)C(C)(C)CO
- cytotoxicity call (HSkMC): inactive
- cytotoxicity call (HepG2): inactive
- growth inhibition call (S. aureus RN4220): inactive

Structure (SMILES): COC(=O)c1c(C)c2c(c(C)c1OC)OC(=O)c1c(C)c(Cl)c(OC)c(Cl)c1O2
- cytotoxicity call (HSkMC): inactive
- cytotoxicity call (HepG2): inactive
- growth inhibition call (S. aureus RN4220): inactive

Structure (SMILES): CO[C@H]1C[C@H](O[C@@H]2/C(C)=C/C[C@@H]3C[C@@H](C[C@]4(CC[C@H](C)[C@@H](C5CCCCC5)O4)O3)OC(=O)[C@@H]3C=C(C)/C(=N/O)[C@H]4OC/C(=C\C=C\[C@@H]2C)[C@]43O)O[C@@H](C)[C@@H]1O
- cytotoxicity call (HSkMC): active
- cytotoxicity call (HepG2): active
- growth inhibition call (S. aureus RN4220): active

Structure (SMILES): Cc1ccc(S(=O)(=O)N(C)C[C@H]2Oc3ccc(NS(=O)(=O)c4c(C)noc4C)cc3C(=O)N([C@H](C)CO)C[C@@H]2C)cc1
- cytotoxicity call (HSkMC): inactive
- cytotoxicity call (HepG2): inactive
- growth inhibition call (S. aureus RN4220): inactive

Structure (SMILES): C[C@H]1CN([C@@H](C)CO)C(=O)Cc2cc(NC(=O)CCN3CCOCC3)ccc2O[C@H]1CN(C)CC1CCCCC1
- cytotoxicity call (HSkMC): inactive
- cytotoxicity call (HepG2): inactive
- growth inhibition call (S. aureus RN4220): inactive

Structure (SMILES): O=C(C[C@H]1CC[C@H](NC(=O)CN2CCOCC2)[C@@H](CO)O1)NCCc1ccncc1
- cytotoxicity call (HSkMC): inactive
- cytotoxicity call (HepG2): inactive
- growth inhibition call (S. aureus RN4220): inactive

Structure (SMILES): Cc1ccccc1S(=O)(=O)N1C[C@H](O)COC[C@H]2O[C@H](CC(=O)N3CCOCC3)CC[C@@H]21
- cytotoxicity call (HSkMC): inactive
- cytotoxicity call (HepG2): inactive
- growth inhibition call (S. aureus RN4220): inactive

Structure (SMILES): C[C@@H]1CN([C@H](C)CO)C(=O)c2cc(C#Cc3cccnc3)cnc2O[C@@H]1CN(C)Cc1ccc(F)cc1
- cytotoxicity call (HSkMC): inactive
- cytotoxicity call (HepG2): inactive
- growth inhibition call (S. aureus RN4220): inactive

Structure (SMILES): C=CCOC(=O)C1=C[C@@H](c2cn(C(C)=O)c3ccccc23)C[C@@H](OCc2ccc(COC(=O)NCCCCCC(=O)NO)cc2)O1
- cytotoxicity call (HSkMC): inactive
- cytotoxicity call (HepG2): inactive
- growth inhibition call (S. aureus RN4220): inactive

Structure (SMILES): O=C(C[C@@H]1C=C[C@@H](NC(=O)Nc2ccc3c(c2)OCO3)[C@@H](CO)O1)NCCCN1CCOCC1
- cytotoxicity call (HSkMC): inactive
- cytotoxicity call (HepG2): inactive
- growth inhibition call (S. aureus RN4220): inactive

Structure (SMILES): C[C@@H]1CN([C@H](C)CO)C(=O)c2cc(NS(=O)(=O)c3ccc(Cl)cc3)ccc2O[C@@H](C)CCCCO[C@H]1CN(C)S(=O)(=O)c1ccccc1
- cytotoxicity call (HSkMC): inactive
- cytotoxicity call (HepG2): active
- growth inhibition call (S. aureus RN4220): inactive

Structure (SMILES): C[C@@H]1CCCCO[C@H](CN(C)Cc2ccc(C(F)(F)F)cc2)[C@H](C)CN([C@H](C)CO)C(=O)c2cc(NC(=O)c3ccccc3)ccc2O1
- cytotoxicity call (HSkMC): inactive
- cytotoxicity call (HepG2): inactive
- growth inhibition call (S. aureus RN4220): inactive

Structure (SMILES): Cc1ccccc1[C@@H](c1ncccc1C)N(C)C(=O)C1CCN(CCOc2ccc3ccccc3c2)CC1
- cytotoxicity call (HSkMC): inactive
- cytotoxicity call (HepG2): inactive
- growth inhibition call (S. aureus RN4220): inactive

Structure (SMILES): O=C1O[C@@H](c2ccccc2)[C@@H](c2ccccc2)N2[C@@H](c3ccc(OCCO)cc3)[C@]3(C(=O)Nc4ccc(C#CC5=CCCCC5)cc43)[C@@H](C(=O)NC[C@H](O)c3ccccc3)[C@H]12
- cytotoxicity call (HSkMC): inactive
- cytotoxicity call (HepG2): active
- growth inhibition call (S. aureus RN4220): inactive

Structure (SMILES): CO[C@@H]1[C@@H](O[C@@H]2O[C@H](C)[C@@H](O[C@H]3C[C@@](C)(O)[C@@H](OC(=O)CC(C)C)[C@H](C)O3)[C@H](N(C)C)[C@H]2O)[C@@H](CC=O)C[C@@H](C)[C@@H](O)/C=C/C=C/CC(C)OC(=O)C[C@H]1OC(C)=O (stereo partly specified)
- cytotoxicity call (HSkMC): active
- cytotoxicity call (HepG2): active
- growth inhibition call (S. aureus RN4220): inactive
